In all, about 310,000 compounds went through this assay and about 14,000 (4.5%) showed an effect of 50% or more. Effects have a minus sign here. The list shows a part of the results.

Data on 45 compounds can be found in article PMC4336329 (PLoS ONE, 2015).
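Note: peak tail current of the secondary pulse compared with the same well before compound.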

Chain of human ether-à-go-go-related gene (hERG) potassium channel (Q12809 whole entry, looked up): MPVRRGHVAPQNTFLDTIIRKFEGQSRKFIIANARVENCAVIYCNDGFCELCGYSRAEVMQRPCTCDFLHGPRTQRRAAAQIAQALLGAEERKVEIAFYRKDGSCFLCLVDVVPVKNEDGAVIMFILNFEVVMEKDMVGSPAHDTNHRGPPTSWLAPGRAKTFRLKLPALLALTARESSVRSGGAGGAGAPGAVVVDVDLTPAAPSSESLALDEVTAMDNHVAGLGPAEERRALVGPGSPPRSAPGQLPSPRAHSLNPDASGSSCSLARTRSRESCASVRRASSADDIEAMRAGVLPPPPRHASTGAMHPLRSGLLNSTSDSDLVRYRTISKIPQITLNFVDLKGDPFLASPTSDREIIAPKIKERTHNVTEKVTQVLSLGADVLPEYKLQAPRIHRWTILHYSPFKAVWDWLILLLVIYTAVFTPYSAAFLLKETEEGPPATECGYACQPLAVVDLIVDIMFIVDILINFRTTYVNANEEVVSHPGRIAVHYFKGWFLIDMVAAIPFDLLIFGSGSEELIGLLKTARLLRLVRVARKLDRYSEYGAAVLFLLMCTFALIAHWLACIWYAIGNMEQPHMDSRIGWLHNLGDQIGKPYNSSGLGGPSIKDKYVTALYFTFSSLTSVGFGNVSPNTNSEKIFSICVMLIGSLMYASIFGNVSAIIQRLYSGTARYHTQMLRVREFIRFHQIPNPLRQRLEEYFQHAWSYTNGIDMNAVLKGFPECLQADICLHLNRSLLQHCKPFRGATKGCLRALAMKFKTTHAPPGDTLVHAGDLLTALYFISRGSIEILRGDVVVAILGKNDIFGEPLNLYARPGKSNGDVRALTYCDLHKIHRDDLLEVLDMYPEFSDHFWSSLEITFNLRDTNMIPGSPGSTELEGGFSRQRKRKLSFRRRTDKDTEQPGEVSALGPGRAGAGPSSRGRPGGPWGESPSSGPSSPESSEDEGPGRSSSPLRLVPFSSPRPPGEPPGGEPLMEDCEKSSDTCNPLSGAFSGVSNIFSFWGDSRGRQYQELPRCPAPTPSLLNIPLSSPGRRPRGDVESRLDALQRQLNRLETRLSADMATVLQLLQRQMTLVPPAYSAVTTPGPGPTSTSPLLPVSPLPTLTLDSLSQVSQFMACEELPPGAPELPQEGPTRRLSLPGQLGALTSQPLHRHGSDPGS

This assay has as its target human ether-à-go-go-related gene (hERG) potassium channel (human, UniProt Q12809). The assay can be described thus: primary screen, population patch clamp on CHO cells stably expressing hERG.
With `Cc1ccc(C(=O)Nc2cccc(C(=O)O)c2)cc1S(=O)(=O)N1CCOCC1`, the “hERG current change (%, negative = inhibition) at 10uM” value was determined as 7.7%.
As to `CC1(C)Cc2nc3sc4c(NCCO)ncnc4c3cc2CS1`, the “hERG current change (%, negative = inhibition) at 10uM” value worked out at 4.05%.
Then `O=C(NCC1CCOCC1)C1CCC(=O)N(Cc2cccc(C(F)(F)F)c2)C1` (stereo not drawn), with 16%.
In the case of `Cn1c(SCC(=O)N/N=C/c2ccc(O)c(O)c2)nc2ccccc21`, the “hERG current change (%, negative = inhibition) at 10uM” value was 4.68%.
Consider `COC(=O)c1ccc(NC(=O)C2CC2)o1`, for which the “hERG current change (%, negative = inhibition) at 10uM” value turned out to be 11.7%.
On to `COc1ccc(OCCCC(=O)Nc2cccc(SC)c2)cc1`, for which the “hERG current change (%, negative = inhibition) at 10uM” value came to 14.4%.
Then `COCCCn1c(=N)c(C(=O)NC2CCCCC2)cc2c(=O)n3ccccc3nc21`, with -78.8%; and `CC(=O)c1cccc(OCC(=O)N2CCN(CC(=O)Nc3cccc(F)c3)CC2)c1`, with -42.2%; and `O=c1oc2cc(O)ccc2cc1S(=O)(=O)c1ccccc1`, with 11.6%.
Then `CCOC(=O)CN1C(=O)N[C@@H](c2ccccc2)[C@@H](C(=O)OC)[C@H]1C`, with -0.0326%; and `COC(=O)c1ccc(Cl)c(NC(=O)CSc2ncn[nH]2)c1`, with 6.05%; and `COc1ccccc1CNC(=O)c1ccc(CS(=O)(=O)c2ccccc2OC)o1`, with -33.2%.
Under `COc1ccc(NC(=O)COc2ccc(N(C)S(=O)(=O)c3ccc(C)cc3)cc2)cc1` stands 0.0425%; under `O=C(Cc1ccccc1[N+](=O)[O-])Nc1ccc2c(c1)OCCO2`, 8.58%.
Turning to `O=C(CNC(=O)C12CC3CC(CC(C3)C1)C2)N/N=C\c1ccccn1`, the “hERG current change (%, negative = inhibition) at 10uM” value was -12.9%.
With `CCCc1cc(=O)[nH]c(SCC(=O)N2CCN(S(=O)(=O)c3ccc4ccccc4c3)CC2)n1`, the “hERG current change (%, negative = inhibition) at 10uM” value was 11%.
Under `CCOc1cc(C(=O)NCc2ccc(F)cc2)ccc1OCC(=O)N1CCCCC1` stands -37.5%; under `Cn1c(SCC(=O)NNC(=O)Cc2ccccc2)nc2ccccc2c1=O`, 11.7%; under `C=CCN(CC=C)S(=O)(=O)c1ccc(F)cc1`, -3.7%.
Under `Cc1cc(C)c2nc(SCC(=O)NC(=O)c3cccn3C)cc(C)c2c1` stands -2.66%; under `COC(C[C@H]1O[C@@H]1C(=O)[C@H](C)OCc1ccccc1)OC`, 25.7%; under `COC(=O)Cn1c(=O)c2c(nc3n2CCCN3Cc2ccccc2)n(C)c1=O`, -8.37%.
`CCOC(=O)C1=C(CS(=O)(=O)c2ccc(F)cc2)NC(=O)NC1c1ccc(O)c(O)c1` (stereo not drawn): the “hERG current change (%, negative = inhibition) at 10uM” value worked out at 15.5%.
Consider `CC(=O)c1ccc(NC(=O)Nc2cccc3ccccc23)cc1`, for which the “hERG current change (%, negative = inhibition) at 10uM” value is given as 18.1%.
Then `Cc1csc(SCC(=O)NC2CCCC2)n1`, with 19.7%; and `COc1ccc(S(=O)(=O)NC2CCCC2)cc1NC(C)=O`, with 5%; and `O=C(CCNS(=O)(=O)c1ccccc1)NNC(=O)c1csc(N2CCOCC2)n1`, with 21.1%.
Then `O=C(COC(=O)/C=C/c1cccc(F)c1)NNC(=O)c1ccccc1`, with 11.7%; and `Cc1ccc(NC(=O)CSc2nnnn2-c2ccc3c(c2)OCO3)cc1C`, with 7.17%; and `COc1ccc(C2=C(O)C(C)N(c3ccccc3)C2=N)cc1OC` (stereo not drawn), with 7.02%.
Under `COc1ccccc1OCC(=O)Nc1nc2c(s1)CCCC2` stands -9.31%; under `COc1ccc(NC(C)=O)cc1NC(C)c1nc2sc(C)c(C)c2c(=O)[nH]1` (stereo not drawn), 24.5%; under `COc1ccc(CCNCc2c(OC)ccc3ccccc23)cc1OC.Cl`, -44.6%.
On to `O=C(O)CCC(=O)Nc1ccc(S(=O)(=O)N2CCCC2)cc1`, for which the “hERG current change (%, negative = inhibition) at 10uM” value is recorded as 17.2%.
Under `C/C(=C/C(=O)NCc1ccccc1)C(=O)O` stands -2.69%; under `Cc1ccc(-c2nnc(SCC(=O)OC(C)C)n2N)cc1`, 7.03%; under `CC1CCCC(NC(=O)COC(=O)c2ccc3ncsc3c2)C1C` (stereo not drawn), -3.48%.
For `CCC(=O)N(Cc1ccc(S(N)(=O)=O)cc1)C1CC(=O)N(c2ccccc2)C1=O` (stereo not drawn), the “hERG current change (%, negative = inhibition) at 10uM” value was 35.7%.
Then `CCCS(=O)(=O)c1nc(S(=O)(=O)c2ccc(C)cc2)c(N2CCN(C)CC2)s1`, with -0.314%.
With `COc1ccc(CNC(=O)COC(=O)c2ccc3ncsc3c2)cc1OC`, the “hERG current change (%, negative = inhibition) at 10uM” value was 14.5%.
Then `CCCCNC(=O)c1cccc(S(=O)(=O)N2CC3(C)CC2CC(C)(C)C3)c1` (stereo not drawn), with -26.7%; and `CCC1(c2ccc(F)cc2)NC(=O)N(CC(=O)N2c3ccccc3NC(=O)C2(C)C)C1=O` (stereo not drawn), with -36.4%; and `O=S(=O)(c1ccc2[nH]c3c(c2c1)CCCC3)N1CCCCC1`, with 2.21%.
`CCN(CC)C(=O)Cn1c(=O)n(CCC(=O)Nc2ccc(F)cc2)c(=O)c2sccc21`: the “hERG current change (%, negative = inhibition) at 10uM” value came out at 14.9%.
As to `O=C(CSc1nnc(CNC(=O)c2cccs2)o1)Nc1cccc(F)c1`, the “hERG current change (%, negative = inhibition) at 10uM” value was found to be 4.85%.
